For 1 substance, binding results are on record in PMC10163088.

Chains of the proteins cited; added tags and fusions are not shown. Lines headed by an entry give the natural chain unless they say otherwise; changes in a name come on top. Residues count along the entry.
UniProt P22579, residues 301-600: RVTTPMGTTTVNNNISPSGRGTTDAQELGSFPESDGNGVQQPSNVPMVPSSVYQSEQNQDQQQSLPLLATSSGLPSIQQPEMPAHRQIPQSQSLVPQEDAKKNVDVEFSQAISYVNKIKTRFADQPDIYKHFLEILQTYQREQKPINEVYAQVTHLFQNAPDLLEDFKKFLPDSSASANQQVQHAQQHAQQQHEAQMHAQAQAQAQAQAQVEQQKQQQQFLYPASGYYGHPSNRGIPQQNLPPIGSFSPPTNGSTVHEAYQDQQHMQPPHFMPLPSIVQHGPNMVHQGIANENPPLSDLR

Results are given in words; binding and its absence hold for the method and conditions named. Binding seen in cells or lysates may run through a third protein. Some binding calls cover weakened binding; strength is not graded here. Tags and fused reporters may be left off the sequences shown.

In the experiment the target is T1, GST-Mot3 (full-length) (S. cerevisiae) (UniProt P54785).
T1 sequence: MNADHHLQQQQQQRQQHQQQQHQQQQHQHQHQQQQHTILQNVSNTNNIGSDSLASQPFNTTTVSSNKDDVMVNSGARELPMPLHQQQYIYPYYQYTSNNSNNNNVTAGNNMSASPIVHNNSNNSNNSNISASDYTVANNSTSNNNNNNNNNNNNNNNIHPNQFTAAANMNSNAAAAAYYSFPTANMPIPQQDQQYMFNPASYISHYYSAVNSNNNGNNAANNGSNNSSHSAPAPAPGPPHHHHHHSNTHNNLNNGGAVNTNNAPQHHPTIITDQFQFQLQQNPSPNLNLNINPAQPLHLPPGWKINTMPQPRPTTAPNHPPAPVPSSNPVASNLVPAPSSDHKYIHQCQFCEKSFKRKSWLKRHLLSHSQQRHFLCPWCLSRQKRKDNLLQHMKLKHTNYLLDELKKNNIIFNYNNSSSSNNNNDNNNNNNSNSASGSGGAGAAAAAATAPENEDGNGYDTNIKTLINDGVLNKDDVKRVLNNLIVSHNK
The experiment is described as follows: pull-down; GST fusions of full-length repressors immobilised on GSH sepharose, incubated with protein extracts from yeast transformants containing epitope-tagged Sin3 length variants; anti-HA blot (Fig. 2); only the target purified.

As to “epitope-tagged Sin3 length variant 301-600 (PAH2; pYJ91) (from UniProt P22579 301-600) (domain or fragment)”, the binding entry is “binds”.
